From article PMC12820563 come the findings set out here.

Some of the results follow. The list includes weakly bound sequences.

The target in the assay is T1, MBP-FoxP3dN (UniProt Q99JB6).
T1 sequence: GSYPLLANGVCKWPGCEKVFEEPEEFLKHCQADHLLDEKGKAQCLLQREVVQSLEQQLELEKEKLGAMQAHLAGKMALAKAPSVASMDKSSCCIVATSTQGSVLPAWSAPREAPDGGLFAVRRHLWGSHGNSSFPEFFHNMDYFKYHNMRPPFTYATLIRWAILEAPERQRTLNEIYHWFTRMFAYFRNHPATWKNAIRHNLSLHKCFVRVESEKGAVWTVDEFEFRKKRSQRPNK
As to the kind of experiment: PD-seq (MBP pull-down with sequencing). Particulars: 20 mM Tris-HCl pH 7.5, 100 mM NaCl, 1.5 mM MgCl2, 0.4 uM protein, 0.1 uM dsDNA library, 30 min, room temperature, amylose pull-down; high values mean tight binding; double strand, one strand shown.
Take “GATGATTGTTCTCCCAGCTGATGAATTTCAGGACTCGAGTAAACAAATTTTCCTAATCTTTCTGTTCAAGCGCCATCTAC”: the binding signal (RPM ratio (pull-down/input)) stood at 0.238.

As for “GATGATTGTTCTCCCAGCTGATGAATTAAGATATTCGAGTAAACAAATTTTCCTAATCTTTCTGTTCAAGCGCCATCTAC”, the binding signal (RPM ratio (pull-down/input)) amounted to 0.69.

“GATGATTGTTCTCCCAGCTGATGAATTAGGTCAGTCGAGTAAACAAATTTTCCTAATCTTTCTGTTCAAGCGCCATCTAC”: the binding signal (RPM ratio (pull-down/input)) was found to be 0.278.

In the case of “GATGATTGTTCTCCCAGCTGATGAATTCTAACTATCGAGTAAACAAATTTTCCTAATCTTTCTGTTCAAGCGCCATCTAC”, the binding signal (RPM ratio (pull-down/input)) is 0.447.

Consider “GATGATTGTTCTCCCAGCTGATGAATTCCGTTGCTCGAGTAAACAAATTTTCCTAATCTTTCTGTTCAAGCGCCATCTAC”, for which the binding signal (RPM ratio (pull-down/input)) was 1.05.

Regarding “GATGATTGTTCTCCCAGCTGATGAATTAAATCTTTCGAGTAAACAAATTTTCCTAATCTTTCTGTTCAAGCGCCATCTAC”, the binding signal (RPM ratio (pull-down/input)) is 0.279.

Regarding “GATGATTGTTCTCCCAGCTGATGAATTACGTTGCTCGAGTAAACAAATTTTCCTAATCTTTCTGTTCAAGCGCCATCTAC”, the binding signal (RPM ratio (pull-down/input)) stood at 1.14.

Turning to “GATGATTGTTCTCCCAGCTGATGAATTACAGGTGTCGAGTAAACAAATTTTCCTAATCTTTCTGTTCAAGCGCCATCTAC”, the binding signal (RPM ratio (pull-down/input)) worked out at 0.684.

Regarding “GATGATTGTTCTCCCAGCTGATGAATTCGCAGATTCGAGTAAACAAATTTTCCTAATCTTTCTGTTCAAGCGCCATCTAC”, the binding signal (RPM ratio (pull-down/input)) worked out at 0.316.

Regarding “GATGATTGTTCTCCCAGCTGATGAATTTAGTGATTCGAGTAAACAAATTTTCCTAATCTTTCTGTTCAAGCGCCATCTAC”, the binding signal (RPM ratio (pull-down/input)) was determined as 1.91.

Consider “GATGATTGTTCTCCCAGCTGATGAATTGGGCGCATCGAGTAAACAAATTTTCCTAATCTTTCTGTTCAAGCGCCATCTAC”, for which the binding signal (RPM ratio (pull-down/input)) was 1.39.

Regarding “GATGATTGTTCTCCCAGCTGATGAATTCATCCAGTCGAGTAAACAAATTTTCCTAATCTTTCTGTTCAAGCGCCATCTAC”, the binding signal (RPM ratio (pull-down/input)) is 0.248.

With “GATGATTGTTCTCCCAGCTGATGAATTGTGCTTGTCGAGTAAACAAATTTTCCTAATCTTTCTGTTCAAGCGCCATCTAC”, the binding signal (RPM ratio (pull-down/input)) worked out at 5.16.

Regarding “GATGATTGTTCTCCCAGCTGATGAATTGAAACCCTCGAGTAAACAAATTTTCCTAATCTTTCTGTTCAAGCGCCATCTAC”, the binding signal (RPM ratio (pull-down/input)) came to 0.235.

As for “GATGATTGTTCTCCCAGCTGATGAATTGAGAGTGTCGAGTAAACAAATTTTCCTAATCTTTCTGTTCAAGCGCCATCTAC”, the binding signal (RPM ratio (pull-down/input)) turned out to be 0.963.

Take “GATGATTGTTCTCCCAGCTGATGAATTTAGTGACTCGAGTAAACAAATTTTCCTAATCTTTCTGTTCAAGCGCCATCTAC”: the binding signal (RPM ratio (pull-down/input)) came to 1.59.

Turning to “GATGATTGTTCTCCCAGCTGATGAATTTGCGTACTCGAGTAAACAAATTTTCCTAATCTTTCTGTTCAAGCGCCATCTAC”, the binding signal (RPM ratio (pull-down/input)) came out at 4.57.

For the sequence “GATGATTGTTCTCCCAGCTGATGAATTCGGCCCATCGAGTAAACAAATTTTCCTAATCTTTCTGTTCAAGCGCCATCTAC”, the binding signal (RPM ratio (pull-down/input)) stood at 0.889.

With “GATGATTGTTCTCCCAGCTGATGAATTCGATAGGTCGAGTAAACAAATTTTCCTAATCTTTCTGTTCAAGCGCCATCTAC”, the binding signal (RPM ratio (pull-down/input)) came out at 0.624.

For the sequence “GATGATTGTTCTCCCAGCTGATGAATTGTGCCTGTCGAGTAAACAAATTTTCCTAATCTTTCTGTTCAAGCGCCATCTAC”, the binding signal (RPM ratio (pull-down/input)) was determined as 6.42.

Consider “GATGATTGTTCTCCCAGCTGATGAATTCTTCTTTTCGAGTAAACAAATTTTCCTAATCTTTCTGTTCAAGCGCCATCTAC”, for which the binding signal (RPM ratio (pull-down/input)) was 0.26.

With “GATGATTGTTCTCCCAGCTGATGAATTGTAAGACTCGAGTAAACAAATTTTCCTAATCTTTCTGTTCAAGCGCCATCTAC”, the binding signal (RPM ratio (pull-down/input)) was found to be 0.374.

In the case of “GATGATTGTTCTCCCAGCTGATGAATTGGTGTACTCGAGTAAACAAATTTTCCTAATCTTTCTGTTCAAGCGCCATCTAC”, the binding signal (RPM ratio (pull-down/input)) was found to be 3.3.

As for “GATGATTGTTCTCCCAGCTGATGAATTTTGAACATCGAGTAAACAAATTTTCCTAATCTTTCTGTTCAAGCGCCATCTAC”, the binding signal (RPM ratio (pull-down/input)) worked out at 0.498.

As for “GATGATTGTTCTCCCAGCTGATGAATTAGCTGTCTCGAGTAAACAAATTTTCCTAATCTTTCTGTTCAAGCGCCATCTAC”, the binding signal (RPM ratio (pull-down/input)) came out at 2.44.

For “GATGATTGTTCTCCCAGCTGATGAATTCGTGAGCTCGAGTAAACAAATTTTCCTAATCTTTCTGTTCAAGCGCCATCTAC”, the binding signal (RPM ratio (pull-down/input)) came out at 0.432.

In the case of “GATGATTGTTCTCCCAGCTGATGAATTACAGTCATCGAGTAAACAAATTTTCCTAATCTTTCTGTTCAAGCGCCATCTAC”, the binding signal (RPM ratio (pull-down/input)) came to 0.774.

“GATGATTGTTCTCCCAGCTGATGAATTTTTGCCATCGAGTAAACAAATTTTCCTAATCTTTCTGTTCAAGCGCCATCTAC”: the binding signal (RPM ratio (pull-down/input)) stood at 3.09.

As for “GATGATTGTTCTCCCAGCTGATGAATTTCGGGTGTCGAGTAAACAAATTTTCCTAATCTTTCTGTTCAAGCGCCATCTAC”, the binding signal (RPM ratio (pull-down/input)) came to 0.707.

Take “GATGATTGTTCTCCCAGCTGATGAATTTGCCCCTTCGAGTAAACAAATTTTCCTAATCTTTCTGTTCAAGCGCCATCTAC”: the binding signal (RPM ratio (pull-down/input)) was 0.503.

With “GATGATTGTTCTCCCAGCTGATGAATTGTTAGAGTCGAGTAAACAAATTTTCCTAATCTTTCTGTTCAAGCGCCATCTAC”, the binding signal (RPM ratio (pull-down/input)) is 0.504.

Regarding “GATGATTGTTCTCCCAGCTGATGAATTATTCGGCTCGAGTAAACAAATTTTCCTAATCTTTCTGTTCAAGCGCCATCTAC”, the binding signal (RPM ratio (pull-down/input)) worked out at 0.27.
